In PubChem BioAssay AID504466 (National Center for Advancing Translational Sciences (NCATS), 2011):
About 4,200 (1.3%) of roughly 330,000 compounds were called active. This list was built around the results that the source calls inconclusive (neither active nor inactive); the mix of calls is not that of the screen. Calls come from the whole dose curve; as a rule, active = well fitted activation curve with a large enough effect; inconclusive = small, poorly fitted or top-dose-only effect; inactive = no such curve, though single readings can be large or run the other way. Where the call is inconclusive, the potency comes from a doubtful curve fit.

Experiment: qHTS screen for small molecules that induce genotoxicity in human embryonic kidney (HEK293T) cells expressing luciferase-tagged ELG1; note: nearly all actives have a fitted effect of over 60% in size
Details: HEK293T ELG1-luciferase reporter, luminescence, 16 h; series mostly up to 46 µM
Summary of the method: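 Genotoxic stress is detected as increased luminescence from luciferase-tagged ELG1 in HEK293T cells, measured with ONE-Glo after a 16 hr treatment at 37 °C.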
Potency is the fitted concentration of half-maximal effect; tags give direction and shape of the fitted curve.

Compound | Potency
CSc1ccc(/C=N/n2c(COc3ccccc3)n[nH]c2=S)cc1 | inactive
COc1cc2c(cc1OC)-c1n[nH]c(=S)n1C(C)(C)C2 | inconclusive: 16.4 µM [activator, single point]
CNc1nc(-c2ccc3c(c2)CCN3C(=O)c2ccccc2F)cs1 | inconclusive: 6.51 µM [activator, single point]
C=CCNC(=S)NNC(=O)COc1ccc2cc(Br)ccc2c1 | inconclusive: 13 µM [activator, partial curve]
C/C=C/CSc1nc2c(c(=O)[nH]c(=O)n2C)n1CCC | inconclusive: 29.1 µM [activator, single point]
Cc1ccn2cc(-c3ccc(Br)cc3)nc2c1 | inconclusive: 0.326 µM [activator, full curve, poor fit]
Cn1cc([N+](=O)[O-])c(C(=O)Nc2ccc(-c3nc4ccccc4o3)cc2)n1 | inconclusive: 18.3 µM [activator, partial curve, poor fit]
CN(C)c1ccc(C(=O)OCC(=O)N2CCCC2)cc1 | inconclusive: 23.1 µM [activator, partial curve, poor fit]
Brc1ccc(-c2csc(NC3=NCCCCC3)n2)cc1 | inconclusive: 18.4 µM [activator, partial curve, poor fit]
Cc1ccc(N(C)S(=O)(=O)c2cccc(C(=O)OCC(=O)c3c(N)n(C)c(=O)n(C)c3=O)c2)cc1 | inactive
COc1cccc(/C=N\NC(=O)Cn2nnc3ccccc32)c1O | inconclusive: 29.1 µM [activator, single point]
COc1ccc(-c2nnc(-c3cccs3)o2)cc1OC | active: 14.1 µM
CC1(C)O[C@@H](CC(=O)O)[C@]23CO[C@H](C(=O)[C@]4(C)C2CC[C@@]2(C)[C@H](c5ccoc5)OC(=O)C5O[C@]524)[C@@H]13 (stereo not given in full) | inactive
COc1cc(C(=O)NCC(c2ccco2)N(C)C)cc(OC)c1OC (stereo not given) | inactive
CC(C)Oc1ccc(C2c3c(oc4ccccc4c3=O)C(=O)N2CCCN2CCOCC2)cc1 (stereo not given) | active: 20.6 µM
CCCOc1ccc(C(=O)Nc2ccc(N(C)C)cc2)cc1 | active: 5.62 µM
Cc1cccc(NC(=O)CN2C(=O)N/C(=C/c3cc(C)n(-c4cccnc4)c3C)C2=O)c1 | inconclusive: 29.1 µM [activator, single point]
COC(=O)c1cn(Cc2cc(OC)ccc2OC)cc(F)c1=O | inactive
COc1ccc(NC(=O)C2CCCN(c3ncccn3)C2)cc1 (stereo not given) | inconclusive: 13 µM [activator, partial curve]
CC(C)=CC(=O)Nc1nc2ccc([N+](=O)[O-])cc2s1 | inconclusive: 16.4 µM [activator, single point]
Cc1ccccc1C(=O)Nc1ccc(Br)cn1 | active: 9.2 µM
COc1cccc(NC(=O)c2cccc(C(=O)Nc3cccc(OC)c3)c2)c1 | inactive
Cc1noc(C)c1NC(=O)N(C)C[C@H]1Oc2ccc(NC(=O)C3CC3)cc2C(=O)N([C@H](C)CO)C[C@@H]1C | inactive
O=C(CNC(=O)c1cccc(Br)c1)N/N=C/c1ccc2c(c1)OCO2 | inconclusive: 20.6 µM [activator, partial curve, poor fit]
CCc1ccc(OCC(=O)N/N=C(\C)c2ccc3c(c2)OCCO3)cc1 | inactive

Compound | Potency
O=C(NCCCc1ccccc1)C(=O)NCC1OCCN1S(=O)(=O)c1ccc(F)cc1 (stereo not given) | inconclusive: 4.11 µM [activator, partial curve, poor fit]
CCn1ccc(C(=O)Nc2ccc(N(C)C(C)=O)cc2)n1 | inconclusive: 20.6 µM [activator, single point]
CCN1CN(Cc2ccco2)CNC1=S | inactive
O=C(N/N=C/c1cccnc1)c1ccc2c(c1)OCO2 | inconclusive: 13 µM [activator, partial curve, poor fit]
CSc1nc(NC(C)(C)C)nc(Oc2ccc(=O)n(C)n2)n1 | inconclusive: 23.1 µM [activator, single point]
CCOC(=O)C1CCCN(C2=NC(=O)/C(=C/c3ccc(OC)cc3)S2)C1 (stereo not given) | inactive
NC(=O)c1ccccc1NC(=O)/C=C/c1ccc(Cl)cc1 | active: 3.66 µM
O=C(Nc1cc(-c2ccccc2)cs1)c1ccco1 | active: 16.4 µM
COc1ccc(C(=O)n2cc(C(=O)c3cc(C)ccc3O)cn2)cc1OC | inactive
O=C1CC(/C=C/c2ccc(Cl)cc2)=Nc2ccccc2N1 | inconclusive: 2.59 µM [activator, partial curve]
O=C(/C=C/c1ccc2c(c1)OCO2)Nc1nc2ccccc2s1 | active: 18.4 µM
COc1ccc2nc(-c3ccccc3)[nH]c2c1 | active: 1.3 µM
CSc1ccc(/C=N/n2c(C)cc(C)cc2=O)cc1 | active: 10.3 µM
CC(C)c1ccc(C(=O)NC(=S)Nc2ccc3[nH]c(=O)[nH]c3c2)cc1 | inactive
Cc1ccc(CN=C2Nc3ccccc3CS2)cc1 | active: 2.59 µM
COC(=O)N/N=C/c1cc(C)n(-c2ccc(F)cc2)c1C | inconclusive: 29.1 µM [activator, single point]
COc1ccc(NC(=O)CSc2nccn2Cc2ccco2)c(OC)c1 | inconclusive: 23.1 µM [activator, partial curve, poor fit]
O=C(NC(=S)Nc1ccccn1)c1cccc([N+](=O)[O-])c1 | inconclusive: 16.4 µM [activator, partial curve, poor fit]
CCCN1C(=O)/C(=C/c2nc3ccccc3c(=O)[nH]2)c2cc(C)ccc21 | inconclusive: 32.6 µM [activator, partial curve, poor fit]
COCc1cc(C)nc(OC)c1C(N)=O | inactive
Cc1ccc(S(=O)(=O)NCC(=O)OCc2nnc(-c3ccccc3)o2)cc1C | inconclusive: 18.4 µM [activator, partial curve, poor fit]
Cc1ccc(/C=N/NC(=O)CC(=O)NCc2cccnc2)cc1 | inactive
COc1cc(-c2nnc(-c3ccccc3)o2)cc(OC)c1OC | inactive
Cc1cc(=O)[nH]c2ccc(Cl)cc12 | inconclusive: 20.6 µM [activator, partial curve, poor fit]
Cc1ccc(N=Nc2c(C)[nH][nH]c2=O)c(C)c1 | inconclusive: 16.4 µM [activator, single point]

Compound | Potency
CCOc1ccccc1OC(=O)CN1C(=O)c2ccccc2C1=O | inactive
CCc1ccccc1Nc1ccc(C(=O)O)cc1N | inconclusive: 9.2 µM [activator, partial curve]
COc1cccc(CN2CCN(Cc3cccc4c3OCO4)CC2CCO)c1 (stereo not given) | inconclusive: 0.517 µM [activator, full curve, poor fit]
COc1ccccc1OCCC(=O)NNC(=O)c1ccccc1F | inactive
COc1cccc(C2=NC(C)(C)NC(c3ccccc3O)C2)c1 (stereo not given) | inactive
N/C(=N\OC(=O)c1ccc(F)cc1)c1ccccc1 | inconclusive: 9.2 µM [activator, partial curve, poor fit]
O=S(=O)(c1ccccc1)n1ccc(-c2cnc(-c3ccccc3)s2)n1 | inconclusive: 18.4 µM [activator, partial curve, poor fit]
COCCn1c(-c2ccc(OC)c(OC)c2)nc2ccccc21 | inconclusive: 13 µM [activator, partial curve, poor fit]
CCc1ccccc1NC(=O)c1cc(-c2cccs2)on1 | inconclusive: 29.1 µM [activator, single point]
COc1ccc(Nc2ncnc3c2c(C)c(C)n3CCCN(C)C)cc1 | inconclusive: 20.6 µM [activator, partial curve, poor fit]
Cc1ccc(O)c(C(=O)c2cnc3c(c2)COc2ccccc2-3)c1 | inactive
CC(C)CC(=O)Nc1ccc(-c2nnn(CC(=O)NCc3ccco3)n2)cc1 | inconclusive: 20.6 µM [activator, partial curve, poor fit]
c1ccc(-c2cnc(-c3ccccc3)nc2)cc1 | inconclusive: 0.199 µM [activator, full curve, poor fit]
COc1ccc2c(c1)CCc1c(C(=O)N3CCCC3)noc1-2 | inconclusive: 10.3 µM [activator, partial curve, poor fit]
CC(=O)CCCCn1c(=O)c2c(ncn2C)n(C)c1=O | inconclusive: 23.1 µM [activator, partial curve, poor fit]
Cc1ccc(C2CCN(C(=O)Nc3ccc(F)cc3)C2)cc1 (stereo not given) | inconclusive: 11.6 µM [activator, partial curve, poor fit]
CCN(CC)S(=O)(=O)c1ccc2oc(SCC(=O)Nc3cc(C)on3)nc2c1 | inactive
COc1ccc(NC(=O)c2cc3ccccc3o2)cc1 | active: 6.51 µM
COc1ccc(N2CCN(C(C)C(=O)N(C)Cc3ccccc3)CC2)cc1 (stereo not given) | inactive
CCNC(=O)COC(=O)c1cc(C)n(-c2ccccc2)c1C | inconclusive: 16.4 µM [activator, partial curve, poor fit]
CCc1nnc(NC(=O)c2cc(Cl)ccn2)s1 | active: 16.4 µM
CC1Cc2ccccc2N1CC(=O)Nc1ccc2c(c1)OCCCO2 (stereo not given) | inactive
O=C1c2ccccc2NC(c2ccccc2O)N1c1ccc(F)cc1 (stereo not given) | inconclusive: 18.3 µM [activator, partial curve]
C=CC[n+]1ccc(/C=C2\C=Cc3cc(C)ccc3N2CC)c2ccccc21 | inactive
O=C(NCc1csc(-c2ccccc2)n1)c1cc(F)cc2c1OCOC2 | inactive
